{
  "source": "patent US20250367225A1",
  "about": "(priority 2022, published 2025)",
  "test_system": "influenza A virus (H1N1) PR/8/34 (PR8) strain",
  "experiment": "Influenza A PR8 challenge of C57BL/6 mice",
  "type": "in vivo",
  "details": "2 μg IN 2 days prior, day 3",
  "data": [
    {"smiles": "CCCCCCCCCCCCCC[C@@H](O)[C@@H](O)[C@H](CO[C@H]1O[C@H](CO)[C@H](O)[C@H](O)[C@H]1O)NC(=O)CCCCCCCCCCc1ccc(F)cc1", "note": "[7DW8-5]", "values": [
      {"measurement": "infectious virus in lung tissues", "result": "reduced the amount of infectious virus"}
    ]}
  ]
}
